# Measured values from the supplement of paper PMC4604168 (melanoma cell lines).
# The other results are listed elsewhere or left out. Repeats are few or missing, and single values can be far off.
# Test system: LOXIMVI
# Test: cell count relative to DMSO control; melanoma cells; higher = more viable cells
# Details: library dose: standard library concentration; 72 h
# 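Further: cells treated in 1,536-well plates, then fixed and DAPI-stained, with nuclei counted from automated high-throughput microscope images.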
row,Structure (SMILES),cell count [%]
1,"C=CCNC1=C2C[C@@H](C)C[C@H](OC)[C@H](O)[C@@H](C)/C=C(\C)[C@H](OC(N)=O)[C@@H](OC)/C=C\C=C(/C)C(=O)NC(=CC1=O)C2=O [Tanespimycin] + NC(=O)Nc1cc(-c2cccc(F)c2)sc1C(=O)N[C@H]1CCCNC1 [AZD7762] (first compound 0.01 µM, partner dose 0.1 µM)",65.5
2,"CS(=O)(=O)CCNCc1ccc(-c2ccc3ncnc(Nc4ccc(OCc5cccc(F)c5)c(Cl)c4)c3c2)o1 [lapatinib] + C=C(c1ccc(C(=O)O)cc1)c1cc2c(cc1C)C(C)(C)CCC2(C)C [Bexarotene] (first compound 4 µM, partner dose 10 µM)",63.9
3,"CN1CCN(c2ccc3nc(-c4c(N)c5c(F)cccc5[nH]c4=O)[nH]c3c2)CC1 [Dovitinib] + Cn1cncc1[C@@](N)(c1ccc(Cl)cc1)c1ccc2c(c1)c(-c1cccc(Cl)c1)cc(=O)n2C [tipifarnib] (first compound 0.5 µM, partner dose 0.05 µM)",59.8
4,"CS(=O)(=O)CCNCc1ccc(-c2ccc3ncnc(Nc4ccc(OCc5cccc(F)c5)c(Cl)c4)c3c2)o1 [lapatinib] + Cn1c(Nc2ccc(C(F)(F)F)cc2)nc2cc(Oc3ccnc(-c4ncc(C(F)(F)F)[nH]4)c3)ccc21 [CHIR265] (first compound 4 µM, partner dose 0.4 µM)",98
5,"CS(=O)(=O)CCNCc1ccc(-c2ccc3ncnc(Nc4ccc(OCc5cccc(F)c5)c(Cl)c4)c3c2)o1 [lapatinib] + O=C(O)c1ccc2c(c1)nc(Nc1cccc(Cl)c1)c1ccncc12 [CX4945] (first compound 4 µM, partner dose 2 µM)",58.4
6,"CNC(=O)c1cc(Oc2ccc(NC(=O)Nc3ccc(Cl)c(C(F)(F)F)c3)cc2)ccn1 [sorafenib] + COc1ccc2c(c1)CCC1C2CCC2(C)C(NCCCCCCN3C(=O)C=CC3=O)CCC12 [U73122] (first compound 2 µM, partner dose 2 µM)",111
7,"CNC(=O)c1cc(Oc2ccc(NC(=O)Nc3ccc(Cl)c(C(F)(F)F)c3)cc2)ccn1 [sorafenib] + c1cc(-c2cnn3cc(-c4ccc(OCCN5CCCCC5)cc4)cnc23)ccn1 [Dorsomorphin] (first compound 2 µM, partner dose 2 µM)",90.7
8,"C[C@@H](Oc1cc(-c2cnn(C3CCNCC3)c2)cnc1N)c1c(Cl)ccc(F)c1Cl [Crizotinib] + CC(C)CCN1c2nc(Nc3cc(F)c(O)c(F)c3)ncc2N(C)C(=O)C1C [BID1870] (first compound 1 µM, partner dose 1 µM)",106
9,"C[C@@H](Oc1cc(-c2cnn(C3CCNCC3)c2)cnc1N)c1c(Cl)ccc(F)c1Cl [Crizotinib] + O=C(O)c1ccc2c(c1)nc(Nc1cccc(Cl)c1)c1ccncc12 [CX4945] (first compound 1 µM, partner dose 2 µM)",70.8
10,"C[C@@H](Oc1cc(-c2cnn(C3CCNCC3)c2)cnc1N)c1c(Cl)ccc(F)c1Cl [Crizotinib] + CN(C)S(=O)(=O)c1ccc2c(c1)/C(=C/c1cc3c([nH]1)CCCC3)C(=O)N2 [SU6656] (first compound 1 µM, partner dose 2 µM)",114
11,"CNC(=O)c1cc(Oc2ccc(NC(=O)Nc3ccc(Cl)c(C(F)(F)F)c3)cc2)ccn1 [sorafenib] + CC(=O)c1c(C)c2cnc(Nc3ccc(N4CCNCC4)cn3)nc2n(C2CCCC2)c1=O [palbociclib] (first compound 2 µM, partner dose 0.2 µM)",119
12,"CNC(=O)c1cc(Oc2ccc(NC(=O)Nc3ccc(Cl)c(C(F)(F)F)c3)cc2)ccn1 [sorafenib] + C=CCn1c(=O)c2cnc(Nc3ccc(N4CCN(C)CC4)cc3)nc2n1-c1cccc(C(C)(C)O)n1 [MK1775] (first compound 2 µM, partner dose 0.1 µM)",95.1
13,"CN1CCN(c2ccc3nc(-c4c(N)c5c(F)cccc5[nH]c4=O)[nH]c3c2)CC1 [Dovitinib] + CN(NC(=O)CC(=O)NN(C)C(=S)c1ccccc1)C(=S)c1ccccc1 [STA4783] (first compound 0.5 µM, partner dose 0.03 µM)",57.5
14,"C[C@@H](Oc1cc(-c2cnn(C3CCNCC3)c2)cnc1N)c1c(Cl)ccc(F)c1Cl [Crizotinib] + Clc1ccc(Nc2nnc(Cc3ccncc3)c3ccccc23)cc1 [vatalanib] (first compound 1 µM, partner dose 10 µM)",114
15,"C=CCNC1=C2C[C@@H](C)C[C@H](OC)[C@H](O)[C@@H](C)/C=C(\C)[C@H](OC(N)=O)[C@@H](OC)/C=C\C=C(/C)C(=O)NC(=CC1=O)C2=O [Tanespimycin] + CN(NC(=O)CC(=O)NN(C)C(=S)c1ccccc1)C(=S)c1ccccc1 [STA4783] (first compound 0.01 µM, partner dose 0.03 µM)",71.5
16,"CS(=O)(=O)CCNCc1ccc(-c2ccc3ncnc(Nc4ccc(OCc5cccc(F)c5)c(Cl)c4)c3c2)o1 [lapatinib] + O=C(O)C(=O)Nc1sc2c(c1C(=O)O)CCNC2 [TCS401] (first compound 4 µM, partner dose 8.33333 µM)",105
17,"CN1CCN(c2ccc3nc(-c4c(N)c5c(F)cccc5[nH]c4=O)[nH]c3c2)CC1 [Dovitinib] + CC1(C)NC(=O)N(c2ccc([N+](=O)[O-])c(C(F)(F)F)c2)C1=O [nilutamide] (first compound 0.5 µM, partner dose 5 µM)",92.7
18,"CS(=O)(=O)CCNCc1ccc(-c2ccc3ncnc(Nc4ccc(OCc5cccc(F)c5)c(Cl)c4)c3c2)o1 [lapatinib] + C[C@@H]1CCN(C(=O)CC#N)C[C@@H]1N(C)c1ncnc2[nH]ccc12 [CP690550] (first compound 4 µM, partner dose 5 µM)",95.5
19,"C[C@@H](Oc1cc(-c2cnn(C3CCNCC3)c2)cnc1N)c1c(Cl)ccc(F)c1Cl [Crizotinib] + C[C@@H]1CCN(C(=O)CC#N)C[C@@H]1N(C)c1ncnc2[nH]ccc12 [CP690550] (first compound 1 µM, partner dose 5 µM)",84.3
20,"C[C@@H](Oc1cc(-c2cnn(C3CCNCC3)c2)cnc1N)c1c(Cl)ccc(F)c1Cl [Crizotinib] + NC(=O)Nc1cc(-c2cccc(F)c2)sc1C(=O)N[C@H]1CCCNC1 [AZD7762] (first compound 1 µM, partner dose 0.1 µM)",74.3
21,"CN1CCN(c2ccc3nc(-c4c(N)c5c(F)cccc5[nH]c4=O)[nH]c3c2)CC1 [Dovitinib] + N#Cc1c(O)c2c(-c3ccc(-c4ccccc4O)cc3)csc2[nH]c1=O [A769662] (first compound 0.5 µM, partner dose 10 µM)",88.6
22,"CN1CCN(c2ccc3nc(-c4c(N)c5c(F)cccc5[nH]c4=O)[nH]c3c2)CC1 [Dovitinib] + C#Cc1cccc(Nc2ncnc3cc(OCCOC)c(OCCOC)cc23)c1 [erlotinib] (first compound 0.5 µM, partner dose 4 µM)",101
23,"CN1CCN(c2ccc3nc(-c4c(N)c5c(F)cccc5[nH]c4=O)[nH]c3c2)CC1 [Dovitinib] + O=C(O)C(=O)Nc1sc2c(c1C(=O)O)CCNC2 [TCS401] (first compound 0.5 µM, partner dose 8.33333 µM)",99.5
24,"C[C@@H](Oc1cc(-c2cnn(C3CCNCC3)c2)cnc1N)c1c(Cl)ccc(F)c1Cl [Crizotinib] + Cn1nnc2c(C(N)=O)ncn2c1=O [temozolomide] (first compound 1 µM, partner dose 10 µM)",120
25,"C=CCNC1=C2C[C@@H](C)C[C@H](OC)[C@H](O)[C@@H](C)/C=C(\C)[C@H](OC(N)=O)[C@@H](OC)/C=C\C=C(/C)C(=O)NC(=CC1=O)C2=O [Tanespimycin] + OCCn1cc(-c2cnc3nnn(Cc4ccc5ncccc5c4)c3n2)cn1 [PF04217903] (first compound 0.01 µM, partner dose 5 µM)",99.6
26,"C[C@@H](Oc1cc(-c2cnn(C3CCNCC3)c2)cnc1N)c1c(Cl)ccc(F)c1Cl [Crizotinib] + C=CCn1c(=O)c2cnc(Nc3ccc(N4CCN(C)CC4)cc3)nc2n1-c1cccc(C(C)(C)O)n1 [MK1775] (first compound 1 µM, partner dose 0.1 µM)",109
27,"C=CCNC1=C2C[C@@H](C)C[C@H](OC)[C@H](O)[C@@H](C)/C=C(\C)[C@H](OC(N)=O)[C@@H](OC)/C=C\C=C(/C)C(=O)NC(=CC1=O)C2=O [Tanespimycin] + OCc1c[nH]c2ccccc12 [Indole-3-carbinol] (first compound 0.01 µM, partner dose 4 µM)",126
28,"CS(=O)(=O)CCNCc1ccc(-c2ccc3ncnc(Nc4ccc(OCc5cccc(F)c5)c(Cl)c4)c3c2)o1 [lapatinib] + NC(=O)Nc1cc(-c2cccc(F)c2)sc1C(=O)N[C@H]1CCCNC1 [AZD7762] (first compound 4 µM, partner dose 0.1 µM)",105
29,"CN1CCN(c2ccc3nc(-c4c(N)c5c(F)cccc5[nH]c4=O)[nH]c3c2)CC1 [Dovitinib] + Nc1ncn([C@H]2C[C@H](O)[C@@H](CO)O2)c(=O)n1 [decitabine] (first compound 0.5 µM, partner dose 0.5 µM)",85.8
